Data published in PubChem BioAssay AID2451 (National Center for Advancing Translational Sciences (NCATS), 2010).
Among all 290,000 compounds or so, about 2,100 (0.72%) were called active. The inconclusive results got no clear call from the source; some entries with a clear call stand among them for comparison. Calls follow the shape of the dose curve; as a rule, active = well fitted inhibition curve with a large enough effect; inconclusive = small, poorly fitted or top-dose-only effect, or effect the other way; inactive = flat fitted curve, though single readings scatter. Potencies beside an inconclusive call are fits to weak or partial responses and may not hold up.

Target: Fructose-bisphosphate aldolase (Giardia intestinalis (strain ATCC 50803 / WB clone C6)) (UniProt A8B2U2)
Assay: qHTS Assay for Inhibitors of Fructose-1,6-bisphosphate Aldolase from Giardia Lamblia; also: nearly all actives have a fitted effect of over 55% in size
Conditions: purified Giardia FBPA; series mostly up to 59.6 µM
Method in brief: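 Giardia FBPA (40 nM reagent) was preincubated 10 min at RT with compound (up to 57.5 uM final), then substrate plus GAPDH/TPI/NAD/arsenate coupling system with diaphorase/resazurin was added; resorufin fluorescence (525/598 nm) was read after 20 min.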
Potency is read from the fitted curve at half-maximal effect; tags tell the direction and shape of the fitted curve.

UniProt A8B2U2, sequence (A8B2U2 whole entry, looked up): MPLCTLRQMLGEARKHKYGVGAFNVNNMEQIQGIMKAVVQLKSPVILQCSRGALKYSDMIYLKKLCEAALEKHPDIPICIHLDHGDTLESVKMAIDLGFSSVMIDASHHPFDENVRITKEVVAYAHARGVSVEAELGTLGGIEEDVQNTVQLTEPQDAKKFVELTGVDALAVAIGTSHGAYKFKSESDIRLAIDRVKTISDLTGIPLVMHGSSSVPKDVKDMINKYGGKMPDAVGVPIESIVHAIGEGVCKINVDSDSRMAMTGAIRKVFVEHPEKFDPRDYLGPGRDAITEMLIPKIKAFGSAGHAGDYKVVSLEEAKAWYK

Compound	Potency
N#CCSc1nnc(COc2cccc3ccccc23)n1-c1cccc(Cl)c1	inactive
COc1ccc(CN2CCN(C(=O)COc3cccc(C)c3)CC2)c(OC)c1	inconclusive: 15.8 µM [inhibitor, single point]
CCOC(=O)c1ccc(N=c2ssnc2Cl)cc1	inconclusive: 31.5 µM [inhibitor, single point]
O=C(CCN1C(=O)COc2ccccc21)NCCN1CCc2ccccc2C1	inconclusive: 19.9 µM [inhibitor, single point]
CCN(CC)CCN1C(=O)C(O)=C(C(=O)c2ccco2)C1c1ccccn1 (centres undefined)	inconclusive: 17.7 µM [inhibitor, partial curve]
Cc1ccc(S(=O)(=O)Nn2c(C)nnc2-n2nc(C)cc2C)cc1	inconclusive: 11.2 µM [inhibitor, partial curve]
O=C(Cn1cnc2ccccc21)N/N=C/c1ccccn1	inconclusive: 17.7 µM [inhibitor, single point]
CCC(=O)OCCNc1cc(SCCC(=O)OC)c2nonc2c1[N+](=O)[O-]	inconclusive: 0.889 µM [inhibitor, full curve]
O=C(CSCc1nc2ccccc2[nH]1)N1CCN(c2ccc(F)cc2)CC1	inactive
C=CCSC1=C(C#N)C(c2ccccc2)CC(=O)N1 (centres undefined)	inconclusive: 17.7 µM [inhibitor, single point]
CCn1cc(C(=O)O)c(=O)c2cc(F)c(N3CCN(C(=S)NC(=O)c4ccccc4F)CC3)cc21	inconclusive: 15.8 µM [inhibitor, partial curve]
O=Cc1cc(N=Nc2cccc(C(=O)O)c2)ccc1O	inconclusive: 19.9 µM [inhibitor, single point]
CCC(C)c1ccc(NC(=O)CN(C)CC(=O)Nc2cccc(OC)c2)cc1 (centres undefined)	active: 15.8 µM
S=c1[nH]nc(C2CCCCC2)n1/N=C/c1ccccn1	inconclusive: 22.3 µM [inhibitor, partial curve]
CC(C)(C)c1ccc(S(=O)(=O)NC(Cc2ccccc2)C(=O)O)cc1 (centres undefined)	inconclusive: 17.7 µM [activator, single point]
NC(=O)c1c(NC(=O)C2c3ccccc3Oc3ccccc32)sc2c1CCCCC2	inconclusive: 22.3 µM [inhibitor, single point]
COC(=O)C1=C(C)NC(C)=C(C(=O)OC)C1c1cc2cc(C)ccc2[nH]c1=O	inactive
CCN(c1ccccc1)S(=O)(=O)c1ccc(OC)c(NC(=O)CNCCc2ccccc2)c1	inconclusive: 4.46 µM [inhibitor, full curve]
CN(C)c1cccc(C(=O)N2CCCC(C(=O)c3cc(F)ccc3F)C2)c1 (centres undefined)	inactive
